No constants are given. Whether binding was seen depends on the method and setting. In cells and extracts the contact can be indirect. Some binding calls cover weakened binding; strength is not graded here. Blank lines part the entries; values can stand above or below the molecule they belong to.
Columns and labels:
Vps16 (S. cerevisiae) [1] = biological target: Vps16 (S. cerevisiae) (UniProt Q03308); test: pull-down; one EGFP-tagged bait subunit and one untagged prey subunit co-translated (10 nM plasmids, 100 µl LTE, 27 °C, 2.5 h) with BODIPY-Lys-tRNA; GFP-Cap (anti-GFP) beads 15 min; washed with 50 mM NaHPO4 pH 8, 300 mM NaCl, 0.1% Triton; SDS-PAGE, fluorescence scan
Vps39 (S. cerevisiae) = Vps39 (S. cerevisiae) (UniProt Q07468); test: as above
Vps16 (S. cerevisiae) [2] = biological target: Vps16 (S. cerevisiae) (UniProt Q03308); test: pull-down; three or four subunits co-translated in LTE (20 nM plasmid mixture in all), one of them GFP-tagged; subcomplex isolated on the anti-GFP matrix; SDS-PAGE, fluorescence scan
[3] = biological target: T1, Vps3 (S. cerevisiae), P23643; test: pull-down; one EGFP-tagged bait subunit and one untagged prey subunit co-translated (10 nM plasmids, 100 µl LTE, 27 °C, 2.5 h) with BODIPY-Lys-tRNA; GFP-Cap (anti-GFP) beads 15 min; washed with 50 mM NaHPO4 pH 8, 300 mM NaCl, 0.1% Triton; SDS-PAGE, fluorescence scan; details: remark: other sources report otherwise
T1 chain: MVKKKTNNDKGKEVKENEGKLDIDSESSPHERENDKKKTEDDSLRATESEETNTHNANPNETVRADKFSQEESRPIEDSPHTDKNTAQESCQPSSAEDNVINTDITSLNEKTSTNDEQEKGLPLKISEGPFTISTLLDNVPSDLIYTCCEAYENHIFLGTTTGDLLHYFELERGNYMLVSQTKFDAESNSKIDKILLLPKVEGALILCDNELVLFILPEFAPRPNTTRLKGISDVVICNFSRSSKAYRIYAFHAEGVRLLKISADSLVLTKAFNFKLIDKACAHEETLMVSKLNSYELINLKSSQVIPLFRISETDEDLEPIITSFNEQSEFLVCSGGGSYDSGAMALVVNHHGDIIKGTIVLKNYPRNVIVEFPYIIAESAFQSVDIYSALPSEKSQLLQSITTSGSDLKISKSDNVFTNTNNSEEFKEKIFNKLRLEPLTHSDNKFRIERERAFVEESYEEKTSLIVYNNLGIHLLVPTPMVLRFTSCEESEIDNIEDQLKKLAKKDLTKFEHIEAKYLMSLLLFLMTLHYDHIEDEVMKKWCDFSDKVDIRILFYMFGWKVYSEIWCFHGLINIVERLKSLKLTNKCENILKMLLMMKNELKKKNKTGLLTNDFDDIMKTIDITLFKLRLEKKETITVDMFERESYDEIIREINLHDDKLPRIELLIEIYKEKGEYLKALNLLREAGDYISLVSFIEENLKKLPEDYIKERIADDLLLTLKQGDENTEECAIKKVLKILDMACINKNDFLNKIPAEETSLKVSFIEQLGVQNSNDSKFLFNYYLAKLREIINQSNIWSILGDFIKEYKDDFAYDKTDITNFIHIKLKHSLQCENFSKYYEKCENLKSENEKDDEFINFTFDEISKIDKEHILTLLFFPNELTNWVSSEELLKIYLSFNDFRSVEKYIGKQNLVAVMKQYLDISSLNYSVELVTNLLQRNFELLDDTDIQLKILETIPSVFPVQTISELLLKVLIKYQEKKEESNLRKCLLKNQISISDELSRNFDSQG

The chains behind the UniProt entries cited, without tags or fusion partners.
UniProt Q03308: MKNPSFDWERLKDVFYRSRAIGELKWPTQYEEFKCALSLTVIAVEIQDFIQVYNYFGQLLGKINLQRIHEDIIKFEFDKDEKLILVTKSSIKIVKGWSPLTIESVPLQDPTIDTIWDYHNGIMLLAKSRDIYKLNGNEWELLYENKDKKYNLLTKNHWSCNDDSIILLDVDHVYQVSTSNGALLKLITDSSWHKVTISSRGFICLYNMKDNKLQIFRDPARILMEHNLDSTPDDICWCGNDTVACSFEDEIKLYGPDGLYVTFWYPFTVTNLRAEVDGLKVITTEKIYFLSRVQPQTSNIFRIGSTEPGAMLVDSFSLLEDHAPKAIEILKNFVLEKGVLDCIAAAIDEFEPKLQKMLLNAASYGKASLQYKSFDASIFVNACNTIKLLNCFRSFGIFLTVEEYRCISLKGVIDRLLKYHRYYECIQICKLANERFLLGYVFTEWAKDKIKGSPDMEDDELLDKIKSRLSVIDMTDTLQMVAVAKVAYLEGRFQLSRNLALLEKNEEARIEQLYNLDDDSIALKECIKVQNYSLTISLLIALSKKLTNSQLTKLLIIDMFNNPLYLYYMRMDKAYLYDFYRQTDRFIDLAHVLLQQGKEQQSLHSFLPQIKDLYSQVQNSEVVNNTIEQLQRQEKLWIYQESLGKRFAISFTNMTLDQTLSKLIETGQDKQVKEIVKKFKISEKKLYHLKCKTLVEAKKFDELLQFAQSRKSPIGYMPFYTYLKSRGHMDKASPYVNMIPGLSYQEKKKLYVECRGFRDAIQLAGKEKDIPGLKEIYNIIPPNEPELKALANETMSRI
UniProt Q07468: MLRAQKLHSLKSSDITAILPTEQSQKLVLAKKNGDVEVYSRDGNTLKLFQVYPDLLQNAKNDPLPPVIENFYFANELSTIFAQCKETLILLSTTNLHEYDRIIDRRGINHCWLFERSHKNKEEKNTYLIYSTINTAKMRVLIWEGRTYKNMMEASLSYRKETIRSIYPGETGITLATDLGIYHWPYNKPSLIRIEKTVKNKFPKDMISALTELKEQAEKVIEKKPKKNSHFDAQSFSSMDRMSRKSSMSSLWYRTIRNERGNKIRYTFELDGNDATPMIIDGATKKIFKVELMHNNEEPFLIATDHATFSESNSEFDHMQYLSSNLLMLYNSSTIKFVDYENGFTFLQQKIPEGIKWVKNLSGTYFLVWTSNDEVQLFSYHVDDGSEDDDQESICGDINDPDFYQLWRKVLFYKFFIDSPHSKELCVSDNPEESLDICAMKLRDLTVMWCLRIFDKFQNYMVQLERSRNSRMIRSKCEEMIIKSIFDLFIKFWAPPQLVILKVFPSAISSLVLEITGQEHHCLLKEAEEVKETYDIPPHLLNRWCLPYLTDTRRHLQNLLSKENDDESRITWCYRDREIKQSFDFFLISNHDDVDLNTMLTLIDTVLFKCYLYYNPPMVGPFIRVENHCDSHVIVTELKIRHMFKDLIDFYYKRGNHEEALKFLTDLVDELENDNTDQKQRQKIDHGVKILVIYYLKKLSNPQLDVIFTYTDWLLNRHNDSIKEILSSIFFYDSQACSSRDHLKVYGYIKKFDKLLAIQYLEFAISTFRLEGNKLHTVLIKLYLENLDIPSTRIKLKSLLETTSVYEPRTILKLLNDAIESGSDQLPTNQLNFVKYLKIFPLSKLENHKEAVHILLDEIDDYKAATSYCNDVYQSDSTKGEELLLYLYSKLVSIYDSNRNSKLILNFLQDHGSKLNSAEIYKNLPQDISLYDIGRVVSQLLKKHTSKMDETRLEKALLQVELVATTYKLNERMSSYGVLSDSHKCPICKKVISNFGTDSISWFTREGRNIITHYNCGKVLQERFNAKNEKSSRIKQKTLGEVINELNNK

[4] = biological target: T2, Vps11 (S. cerevisiae), P12868; test: as above; details: remark: other sources report otherwise
T2 chain: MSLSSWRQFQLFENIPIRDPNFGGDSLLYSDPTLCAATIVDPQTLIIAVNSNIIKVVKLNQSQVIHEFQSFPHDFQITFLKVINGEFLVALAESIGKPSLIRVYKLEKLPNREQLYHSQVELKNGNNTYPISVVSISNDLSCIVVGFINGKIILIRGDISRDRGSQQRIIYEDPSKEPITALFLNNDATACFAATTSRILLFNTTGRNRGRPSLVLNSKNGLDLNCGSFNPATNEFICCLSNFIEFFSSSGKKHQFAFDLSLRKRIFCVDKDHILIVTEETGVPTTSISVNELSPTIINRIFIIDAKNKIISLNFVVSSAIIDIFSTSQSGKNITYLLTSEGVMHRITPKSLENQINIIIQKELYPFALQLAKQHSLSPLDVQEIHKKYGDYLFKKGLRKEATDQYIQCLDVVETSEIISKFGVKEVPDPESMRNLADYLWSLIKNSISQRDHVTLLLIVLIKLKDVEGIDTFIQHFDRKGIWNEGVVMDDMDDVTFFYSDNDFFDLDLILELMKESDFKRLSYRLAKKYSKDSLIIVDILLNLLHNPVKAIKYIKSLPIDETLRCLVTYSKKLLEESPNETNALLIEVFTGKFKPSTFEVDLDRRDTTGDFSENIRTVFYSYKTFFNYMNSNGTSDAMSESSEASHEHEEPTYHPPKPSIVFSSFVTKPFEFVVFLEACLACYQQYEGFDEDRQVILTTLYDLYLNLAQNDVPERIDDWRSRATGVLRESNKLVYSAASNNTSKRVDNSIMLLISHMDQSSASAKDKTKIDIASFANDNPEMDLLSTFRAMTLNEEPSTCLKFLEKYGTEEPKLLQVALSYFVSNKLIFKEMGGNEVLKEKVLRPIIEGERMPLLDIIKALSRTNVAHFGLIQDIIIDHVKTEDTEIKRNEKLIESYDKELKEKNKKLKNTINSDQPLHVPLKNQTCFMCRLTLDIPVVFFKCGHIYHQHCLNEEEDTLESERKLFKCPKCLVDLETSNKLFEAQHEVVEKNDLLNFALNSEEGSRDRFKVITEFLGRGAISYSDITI

[5] = biological target: T3, Vps8 (S. cerevisiae), P39702; test: as above; details: remark: other sources report otherwise
T3 chain: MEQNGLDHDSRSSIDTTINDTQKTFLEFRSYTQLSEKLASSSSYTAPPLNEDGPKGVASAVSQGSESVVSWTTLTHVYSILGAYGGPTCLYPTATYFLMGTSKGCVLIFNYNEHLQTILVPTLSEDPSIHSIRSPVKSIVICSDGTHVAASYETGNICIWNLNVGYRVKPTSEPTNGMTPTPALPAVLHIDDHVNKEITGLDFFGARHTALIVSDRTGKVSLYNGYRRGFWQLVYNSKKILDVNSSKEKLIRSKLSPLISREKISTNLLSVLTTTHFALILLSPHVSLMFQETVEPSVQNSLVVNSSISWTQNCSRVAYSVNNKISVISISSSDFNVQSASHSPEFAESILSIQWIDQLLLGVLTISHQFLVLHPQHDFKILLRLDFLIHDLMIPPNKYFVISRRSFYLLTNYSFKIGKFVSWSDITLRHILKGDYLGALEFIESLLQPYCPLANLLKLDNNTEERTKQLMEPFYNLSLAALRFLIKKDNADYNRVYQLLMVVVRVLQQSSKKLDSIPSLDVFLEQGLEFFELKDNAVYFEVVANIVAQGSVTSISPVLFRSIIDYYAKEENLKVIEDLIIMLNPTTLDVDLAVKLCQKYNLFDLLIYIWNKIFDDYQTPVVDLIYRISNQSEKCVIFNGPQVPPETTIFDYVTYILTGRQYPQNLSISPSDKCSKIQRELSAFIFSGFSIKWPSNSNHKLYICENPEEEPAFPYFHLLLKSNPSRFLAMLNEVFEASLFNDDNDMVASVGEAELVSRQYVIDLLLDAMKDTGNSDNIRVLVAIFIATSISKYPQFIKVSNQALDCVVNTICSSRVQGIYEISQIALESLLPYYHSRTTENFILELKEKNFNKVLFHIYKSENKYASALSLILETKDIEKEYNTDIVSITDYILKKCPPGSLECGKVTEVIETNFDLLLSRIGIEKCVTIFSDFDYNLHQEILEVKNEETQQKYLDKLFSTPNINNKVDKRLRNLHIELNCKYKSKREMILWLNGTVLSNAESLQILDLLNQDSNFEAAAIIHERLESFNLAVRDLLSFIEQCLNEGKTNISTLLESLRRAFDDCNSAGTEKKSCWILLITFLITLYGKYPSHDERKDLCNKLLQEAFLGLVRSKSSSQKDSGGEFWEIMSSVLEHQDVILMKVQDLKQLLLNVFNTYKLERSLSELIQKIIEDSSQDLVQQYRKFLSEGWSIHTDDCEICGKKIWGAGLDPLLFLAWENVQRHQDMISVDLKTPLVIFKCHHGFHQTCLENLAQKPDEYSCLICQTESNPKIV

binding (Vps16 (S. cerevisiae) [1]): binds | binding (Vps39 (S. cerevisiae)): no binding | binding (Vps16 (S. cerevisiae) [2]): binds
Molecule: Vps33 (from UniProt P20795 1-691)

binding [3]: no binding | binding [4]: no binding | binding [5]: no binding
B1: Vps33, P20795 1-691 (protein)
chain: MNRFWNTKKFSLTNADGLCATLNEISQNDEVLVVQPSVLPVLNSLLTFQDLTQSTPVRKITLLDDQLSDDLPSALGSVPQMDLIFLIDVRTSLRLPPQLLDAAQKHNLSSLHIIYCRWKPSFQNTLEDTEQWQKDGFDLNSKKTHFPNVIESQLKELSNEYTLYPWDLLPFPQIDENVLLTHSLYNMENVNMYYPNLRSLQSATESILVDDMVNSLQSLIFETNSIITNVVSIGNLSKRCSHLLKKRIDEHQTENDLFIKGTLYGERTNCGLEMDLIILERNTDPITPLLTQLTYAGILDDLYEFNSGIKIKEKDMNFNYKEDKIWNDLKFLNFGSIGPQLNKLAKELQTQYDTRHKAESVHEIKEFVDSLGSLQQRQAFLKNHTTLSSDVLKVVETEEYGSFNKILELELEILMGNTLNNDIEDIILELQYQYEVDQKKILRLICLLSLCKNSLREKDYEYLRTFMIDSWGIEKCFQLESLAELGFFTSKTGKTDLHITTSKSTRLQKEYRYISQWFNTVPIEDEHAADKITNENDDFSEATFAYSGVVPLTMRLVQMLYDRSILFHNYSSQQPFILSREPRVSQTEDLIEQLYGDSHAIEESIWVPGTITKKINASIKSNNRRSIDGSNGTFHAAEDIALVVFLGGVTMGEIAIMKHLQKILGKKGINKRFIIIADGLINGTRIMNSIS
modifications: here or on the partner: BODIPY-labelled lysines (BODIPY-Lys-tRNA in the translation); BODIPY-labelled lysines (BODIPY-Lys-tRNA in the translation)
